In PubChem BioAssay AID1461 (National Center for Advancing Translational Sciences (NCATS), 2008):
The whole screen tested about 220,000 compounds, of which about 2,300 (1%) were called active. The inconclusive results got no clear call from the source; some entries with a clear call stand among them for comparison. The call rests on the fitted dose curve; in most records, active means well fitted inhibition curve with a large enough effect; inconclusive means small, poorly fitted or top-dose-only effect, or effect the other way; inactive means no such curve, though single readings can be large or run the other way. Potencies of inconclusive entries are doubtful fits and often do not repeat.

Molecular target: Neuropeptide S receptor (Homo sapiens) (UniProt Q6W5P4)
Chain of UniProt Q6W5P4 (Q6W5P4 whole entry, looked up): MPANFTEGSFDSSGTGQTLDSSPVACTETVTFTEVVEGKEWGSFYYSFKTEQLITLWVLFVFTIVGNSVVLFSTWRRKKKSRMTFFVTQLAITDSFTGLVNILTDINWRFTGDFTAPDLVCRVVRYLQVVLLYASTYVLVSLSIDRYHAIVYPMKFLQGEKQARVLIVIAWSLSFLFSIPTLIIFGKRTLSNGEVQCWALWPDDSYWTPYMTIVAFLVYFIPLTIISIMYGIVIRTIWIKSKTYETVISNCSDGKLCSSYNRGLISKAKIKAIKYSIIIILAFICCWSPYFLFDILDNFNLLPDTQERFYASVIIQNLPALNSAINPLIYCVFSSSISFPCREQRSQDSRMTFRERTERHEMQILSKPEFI
Assay: qHTS Assay for Antagonists of the Neuropeptide S Receptor: cAMP Signal Transduction; further: nearly all actives have a fitted effect of over 50% in size
Settings: CHO-NPSR cells, cAMP TR-FRET, antagonist mode; activity change, negative = inhibition: at 38.3 µM (top of the series) unless noted
On the % scale 0 is the no-effect control and ±100 the full control effect; potency means the concentration at half of the fitted maximal effect; tags describe the fitted curve by direction and shape.

| Structure (SMILES) | Potency | activity change, negative = inhibition |
| --- | --- | --- |
| CCCCN1C(=O)/C(=C/c2ccc(N(C)C)cc2)C(=O)N(Cc2ccco2)C1=O | inconclusive: 10 µM [inhibitor, single point] |  |
| CCOP(=O)(OCC)C(NC(=O)NC)C(N)=O (stereo unspecified) | inconclusive: 15.8 µM [activator, single point] |  |
| CCOC(=O)c1c(NC(=O)C(c2ccccc2)c2ccccc2)sc2c1C1CCN2CC1 | inconclusive: 12.6 µM [inhibitor, partial curve] |  |
| Oc1ccc2c3c1O[C@H]1c4[nH]c5c(c4C[C@@]4(O)[C@@H](C2)N(CC2CC2)CC[C@]314)C[C@@]1(O)[C@H]2Cc3ccc(O)c4c3[C@@]1(CCN2CC1CC1)[C@H]5O4 | inconclusive: 12.6 µM [inhibitor, single point] |  |
| O=C(O)c1cccc2c1NC(c1cccc([N+](=O)[O-])c1)C1CC(Sc3ccccc3[N+](=O)[O-])C(Cl)C21 (stereo unspecified) | active: 10 µM |  |
| COc1cc2c3cc1Oc1cc(ccc1O)C[C@@H]1c4c(cc(OC)c(O)c4Oc4ccc(cc4)C[C@H]3N(C)CC2)CCN1C |  | inactive: 15.4% |
| COc1ccc2[nH]cc(CCN)c2c1 | inconclusive: 3.16 µM [inhibitor, single point] |  |
| Cn1nc(OC(=O)Nc2ccc(Cl)cc2)cc1C(F)(F)F | inconclusive: 12.6 µM [inhibitor, single point] |  |
| CC1=[N+]([O-])C2(N)CCc3nonc3C2(O)C1 (stereo unspecified) | inconclusive: 31.6 µM [inhibitor, partial curve] |  |
| CC(=O)c1cc(OC(=O)N2CCOCC2)ccc1OC(=O)N1CCOCC1 | inconclusive: 10 µM [inhibitor, single point] |  |
| COc1ccc(OC)c(NP(=O)(Oc2ccc(Cl)cc2)Oc2ccc(Cl)cc2)c1 | inconclusive: 12.6 µM [inhibitor, single point] |  |
| CC1(C)C[C@H]2C=C(C=O)[C@]3(C=O)C[C@]3(C)[C@H]2C1 | active: 12.6 µM |  |
| CCN1C(=O)C(=C2C=C(C)N(Cc3ccco3)C(C)=C2)C(=O)N(CC)C1=S |  | inactive: -56.4% |
| Cc1ccccc1N1C(=O)NC(=O)/C(=C\c2cnn(-c3ccccc3)c2)C1=O | inconclusive: 12.6 µM [inhibitor, single point] |  |
| Cc1ccc(C=C2C(Cl)=C(Cl)C(Cl)=C2Cl)cc1 | inconclusive: 3.16 µM [activator, single point] |  |
| COc1ccc(-n2nc(C(F)(F)F)cc2-c2ccc(Cl)cc2)cc1 | inconclusive: 10 µM [inhibitor, partial curve] |  |
| Cc1ccc(N2C(=O)NC(=O)/C(=C\C=C\c3ccco3)C2=O)cc1C | active: 12.6 µM |  |
| O=C1NC(=S)NC(=O)C1=Cc1cccc2cc3ccccc3cc12 | inconclusive: 6.31 µM [activator, partial curve] |  |
| CCN(CC)P(=O)(/C=C(\Cl)c1ccccc1)/C=C(\Cl)c1ccccc1 | inconclusive: 3.16 µM [activator, full curve] |  |
| Cc1cccnc1-n1c(C)nc2ccccc2c1=O | inconclusive: 25.1 µM [inhibitor, single point] |  |
| NS(=O)(=O)c1ccc(N=Cc2c(O)n(C3CCCCC3)c(=O)n(C3CCCCC3)c2=O)cc1 | active: 10 µM |  |
| CN(C)C(=O)C(CCN1CCC(O)(c2ccc(Cl)cc2)CC1)(c1ccccc1)c1ccccc1 | inconclusive: 10 µM [inhibitor, single point] |  |

| Structure (SMILES) | Potency | activity change, negative = inhibition |
| --- | --- | --- |
| CSc1ncc(/C=C2/C(=O)NC(=O)N(C3CCCCC3)C2=O)cn1 | inconclusive: 12.6 µM [inhibitor, single point] |  |
| CCOC(=O)C1(CCCc2ccccc2)CCN(C2CCCC2)CC1 |  | inactive: 15.1% |
| O=c1[nH]c(=O)n(C2CCCCCC2)c(O)c1C=NCc1ccc(F)cc1 | inconclusive: 12.6 µM [activator, partial curve, poor fit] |  |
| COc1ccc(N2CCN(C(CNC(=O)Oc3ccccc3)c3cccnc3)CC2)cc1 (stereo unspecified) | inconclusive: 10 µM [inhibitor, partial curve] |  |
| COC(=O)NC(=C(Cl)Cl)P(=O)(c1ccccc1)c1ccccc1 |  | inactive: 19.9% |
| C=CCN1CCc2cccc3c2C1Cc1ccc(O)c(O)c1-3 (stereo unspecified) | inconclusive: 0.631 µM [inhibitor, full curve, poor fit] |  |
| Cc1[nH]c2ccc(O)cc2c1CCN | inconclusive: 12.6 µM [inhibitor, partial curve] |  |
| O=C1NC(=O)C(=Cc2ccc(-c3ccccc3[N+](=O)[O-])o2)C(=O)N1 | inconclusive: 25.1 µM [inhibitor, single point] |  |
| Cc1cccc(OP(=O)(Oc2ccccc2)OC(c2ccccc2)C(F)(F)F)c1 (stereo unspecified) | inconclusive: 10 µM [inhibitor, single point] |  |
| CC(C)CC(=O)NC(Oc1ccc(Cl)cc1)C(Cl)(Cl)Cl (stereo unspecified) | inconclusive: 25.1 µM [inhibitor, single point] |  |
| CC(C)CCNC(=O)c1c(N)n(CC2CCCO2)c2nc3ccccc3nc12 (stereo unspecified) | inconclusive: 12.6 µM [inhibitor, single point] |  |
| COc1ccc(Cn2c(N)c(C(=O)NCc3ccco3)c3nc4ccccc4nc32)cc1 | inconclusive: 10 µM [inhibitor, single point] |  |
| O=C(O)CCCc1ccc(N(CCCl)CCCl)cc1 | inactive |  |
| NCC(O)c1cc(O)c(O)cc1F (stereo unspecified) | inconclusive: 3.98 µM [activator, single point] |  |
| CCn1c(O)c(N=Nc2ccc(S(=O)(=O)N3CCOCC3)cc2)c(=O)n(CC)c1=S | inconclusive: 25.1 µM [inhibitor, single point] |  |
| Nc1c(C(=O)NCCCc2ccccc2)c2nc3ccccc3nc2n1Cc1cccs1 | inconclusive: 20 µM [inhibitor, single point] |  |
| Oc1ccc(/C=N/NP(=S)(c2ccccc2)c2ccccc2)c(O)c1O | inconclusive: 3.16 µM [inhibitor, full curve, poor fit] |  |
| FC(F)(F)c1ccccc1CN1CCN(Cc2ccccc2)CC1 |  | inactive: -4.06% [at 46.1 µM] |
| Oc1ccc2c3c1O[C@H]1c4[nH]c5ccccc5c4C[C@@]4(O)C(C2)N(CC2CC2)CCC314 (stereo partly specified) | inconclusive: 12.6 µM [inhibitor, partial curve] |  |
| Cc1ccc(-n2c(O)c(/C=C3/C(c4ccccc4)=Nc4ccccc43)c(=O)[nH]c2=O)cc1 | inconclusive: 12.6 µM [inhibitor, single point] |  |
| CC(C)[C@@]1(NC(=O)[C@@H]2C[C@@H]3c4cccc5[nH]cc(c45)C[C@H]3N(C)C2)O[C@@]2(O)[C@@H]3CCCN3C(=O)[C@H](Cc3ccccc3)N2C1=O | active: 2 µM |  |
| CN1CCC(c2c[nH]c3ccc(O)cc23)CC1 | inconclusive: 20 µM [inhibitor, partial curve] |  |

| Structure (SMILES) | Potency | activity change, negative = inhibition |
| --- | --- | --- |
| Cc1cc2c(s1)NC(=O)CN=C2c1cccs1 | inconclusive: 15.8 µM [inhibitor, single point] |  |
| O=C(CC1CCCCC1)N1CCC(c2nc(-c3ccc(S(=O)(=O)N4CCCC4)cc3)no2)CC1 | inconclusive: 12.6 µM [inhibitor, single point] |  |
| Cc1ccc(-c2nc3ccccc3c(=O)n2-c2cccnc2)cc1 |  | inactive: 10.8% |
| O=C(/C=C/c1ccccc1)c1c(O)n(CCc2ccccc2)c(=O)[nH]c1=O | active: 12.6 µM |  |
| Cc1ccsc1C(=O)C1CCCN(Cc2sc(N(C)C)nc2Cl)C1 (stereo unspecified) | inconclusive: 25.1 µM [activator, single point] |  |
| CC1CN(c2ccc([N+](=O)[O-])c3cccnc23)CC(C)N1 (stereo unspecified) |  | inactive: 2.82% [at 46.1 µM] |
| CCC12C=CCN3CCC4(c5cc(Br)c(OC)cc5N(C)C4C(O)(C(=O)OC)C1OC(C)=O)C32 (stereo unspecified) | inconclusive: 12.6 µM [inhibitor, partial curve] |  |
| CC/C(=C(\c1ccc(O)cc1)c1ccc(OCCN(C)C)cc1)c1ccccc1 | active: 10 µM |  |
| O=C(C[N+]12CCC(CC1)C(C(O)(c1ccccc1)c1ccccc1)C2)c1ccc(Br)cc1 (stereo unspecified) | inconclusive: 25.1 µM [inhibitor, single point] |  |
| CC1CCCC(C)N1C(=O)CSc1nnc(NC(=O)c2cccs2)s1 (stereo unspecified) | inconclusive: 12.6 µM [inhibitor, single point] |  |
| Cc1cc2c(cc(C(=O)N3CCC(C(=O)NC4CCCC4)CC3)n2Cc2c(F)cccc2Cl)o1 | inconclusive: 10 µM [inhibitor, single point] |  |
| COc1cccc(N2C(=O)CC(=O)NC2=O)c1 |  | inactive: -1.8% [at 46.1 µM] |
| CCOC(=O)c1c(-n2c(C)cc(C=C3C(=O)NC(=S)NC3=O)c2C)sc2c1CCCC2 | active: 3.98 µM |  |
| O=c1c2ccccc2nc(-c2ccco2)n1-c1ccccn1 |  | inactive: -3.49% [at 46.1 µM] |
| Cc1cccc(C2=NCC(=O)N(CC(=O)NCc3ccco3)c3sc4c(c32)CCCC4)c1 | inconclusive: 12.6 µM [inhibitor, single point] |  |
| O=C(COc1ccc(Cl)cc1)N1CCN(C/C=C/c2ccccc2)CC1 |  | inconclusive: -35.5% [inhibitor] [at 46.1 µM] |
| O=C1NC(=O)N(c2ccccc2)C(=O)/C1=C/c1ccc(Sc2ccccc2)o1 | active: 10 µM |  |
| COc1ccc(/C=C2/C(=O)NC(=O)N(c3ccc(C)c(C)c3)C2=O)cc1CN1C(=O)c2ccccc2C1=O |  | inactive: -16.9% |
| CCCCCOc1ccc(C)cc1CN(CCCl)CCCl | inconclusive: 12.6 µM [activator, single point] |  |
| CCOc1cccc(=NC2CCCCC2)c2c(C)[nH]c(C)c12 | active: 6.31 µM |  |
| COc1ccc(CNC(=O)/C=C/c2ccc3[nH]cc(CCN(C)C)c3c2)cc1 | inconclusive: 0.158 µM [inhibitor, full curve, poor fit] |  |
| CCCCn1c(O)c(C(CC)=Nc2ccc(OCC)cc2)c(=O)[nH]c1=O |  | inactive: -15.1% [at 46.1 µM] |
